# Data as given in the supplement of paper PMC10037445.
# ± gives the standard deviation of the averaged measurements. Whole data set: some 2,900 compounds, median “NF-kB SEAP reporter activity, fold change vs agonist alone” near 0.99, cut for the highest 2% near 2.6. The list shows a part of the results.
# Columns and labels:
# [1] = system: RAW-Dual; test: NF-kB SEAP reporter activity, fold change vs agonist alone; higher = enhanced NF-kB activity
# In short: (§1)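 RAW-Dual macrophages (50,000 cells/well in DMEM, 384-well plates) received 50 nL of library stock by pin tool, then a PRR agonist 1 h later, and were kept at 37 °C, 5% CO2. After 20 hours, supernatant was read for IRF by QuantiLuc luminescence and for NF-κB by QuantiBlue absorbance at 620 nm. Reporter activity is fold change over agonist-alone wells. Cytotoxic wells had IncuCyte confluency below 70% of agonist controls in both mask sets.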
# [2] = system: RAW-Dual; test: NF-kB SEAP reporter activity, fold change vs agonist alone; cytotoxicity flag (confluency mask): not cytotoxic; higher = enhanced NF-kB activity
# In short: as §1
# [3] = system: RAW-Dual; test: NF-kB SEAP reporter activity, fold change vs agonist alone; cytotoxicity flag (confluency mask): cytotoxic (confluency <70% of control); higher = enhanced NF-kB activity
# In short: as §1
# [4] = library stock concentration (final ~1000-fold dilution): 10 mM, cytotoxicity flag (confluency mask): not cytotoxic, agonist: Imiquimod (TLR7) […]
# [5] = library stock concentration (final ~1000-fold dilution): 10 mM, cytotoxicity flag (confluency mask): not cytotoxic, agonist: MPLA (TLR4) […]
# [6] = agonist: ODN 1826 (TLR9) 0.5 ug/mL
# [7] = agonist: Pam2CSK4 (TLR2/6) 0.1 ug/mL
# [8] = agonist: Pam3CSK4 (TLR2/1) 0.1 ug/mL
# [9] = library stock concentration (final ~1000-fold dilution): 10 mM, cytotoxicity flag (confluency mask): cytotoxic (confluency <70% of control), agonist: Imiquimod (TLR7) […]
# [10] = library stock concentration (final ~1000-fold dilution): 10 mM, cytotoxicity flag (confluency mask): cytotoxic (confluency <70% of control), agonist: MPLA (TLR4) […]
smiles,measurement,setting,value
O=C(CCc1ccc(O)cc1)c1c(O)cccc1OC1OC(CO)C(O)C(O)C1O (stereo not drawn),NF-kB SEAP reporter activity,[1]; [4],0.97
same,NF-kB SEAP reporter activity,[1]; [5],1.1
O=C(CCc1ccc(O)cc1)c1c(O)cccc1OC1OC(CO)C(O)C(O)C1O (stereo not drawn) (library stock concentration (final ~1000-fold dilution): 10 mM),NF-kB SEAP reporter activity,[2]; agonist: LPS (TLR4) 0.1 ug/mL,1.01
same,NF-kB SEAP reporter activity,[2]; [6],0.961
same,NF-kB SEAP reporter activity,[2]; [7],1.01
same,NF-kB SEAP reporter activity,[2]; [8],0.915
Nc1c2c(nc3ccccc13)CCCC2,NF-kB SEAP reporter activity,[1]; [4],1.17
same,NF-kB SEAP reporter activity,[1]; [5],1.01
Nc1c2c(nc3ccccc13)CCCC2 (library stock concentration (final ~1000-fold dilution): 10 mM),NF-kB SEAP reporter activity,[2]; agonist: LPS (TLR4) 0.1 ug/mL,1.3
same,NF-kB SEAP reporter activity,[2]; [6],0.327
same,NF-kB SEAP reporter activity,[2]; [7],1.03
same,NF-kB SEAP reporter activity,[2]; [8],0.98
O=c1sn(-c2cccc3ccccc23)c(=O)n1Cc1ccccc1 (library stock concentration (final ~1000-fold dilution): 10 mM),NF-kB SEAP reporter activity,[3]; agonist: LPS (TLR4) 0.1 ug/mL,0.547
same,NF-kB SEAP reporter activity,[3]; [6],0.455
same,NF-kB SEAP reporter activity,[3]; [7],0.528
same,NF-kB SEAP reporter activity,[3]; [8],0.893
O=c1sn(-c2cccc3ccccc23)c(=O)n1Cc1ccccc1,NF-kB SEAP reporter activity,[1]; [9],0.75
same,NF-kB SEAP reporter activity,[1]; [10],0.747
C/C(=C(\CCOP(=O)(O)O)SC(=O)c1ccccc1)N(C=O)Cc1cnc(C)nc1N (library stock concentration (final ~1000-fold dilution): 10 mM),NF-kB SEAP reporter activity,[2]; agonist: LPS (TLR4) 0.1 ug/mL,0.998
same,NF-kB SEAP reporter activity,[2]; [6],0.99
same,NF-kB SEAP reporter activity,[2]; [7],1.09
same,NF-kB SEAP reporter activity,[2]; [8],0.98
C/C(=C(\CCOP(=O)(O)O)SC(=O)c1ccccc1)N(C=O)Cc1cnc(C)nc1N,NF-kB SEAP reporter activity,[1]; [4],0.803
same,NF-kB SEAP reporter activity,[1]; [5],0.983
CCN(CC)C(=S)SSC(=S)N(CC)CC (library stock concentration (final ~1000-fold dilution): 10 mM),NF-kB SEAP reporter activity,[2]; agonist: LPS (TLR4) 0.1 ug/mL,1.74
same,NF-kB SEAP reporter activity,[2]; [6],1.13
same,NF-kB SEAP reporter activity,[2]; [7],0.688
same,NF-kB SEAP reporter activity,[2]; [8],0.686
CCN(CC)C(=S)SSC(=S)N(CC)CC,NF-kB SEAP reporter activity,[1]; [4],2.24
same,NF-kB SEAP reporter activity,[1]; [5],1.43
O=C1C(=Cc2cccnc2)C(=O)c2ccccc21 (library stock concentration (final ~1000-fold dilution): 10 mM),NF-kB SEAP reporter activity,[2]; agonist: LPS (TLR4) 0.1 ug/mL,0.821
same,NF-kB SEAP reporter activity,[2]; [6],0.883
same,NF-kB SEAP reporter activity,[2]; [7],1.08
same,NF-kB SEAP reporter activity,[2]; [8],0.99
O=C1C(=Cc2cccnc2)C(=O)c2ccccc21,NF-kB SEAP reporter activity,[1]; [5],1.03
COc1ccc(C(=O)O)cc1O (library stock concentration (final ~1000-fold dilution): 10 mM),NF-kB SEAP reporter activity,[2]; agonist: LPS (TLR4) 0.1 ug/mL,1.41
same,NF-kB SEAP reporter activity,[2]; [6],0.929
same,NF-kB SEAP reporter activity,[2]; [7],1.19
same,NF-kB SEAP reporter activity,[2]; [8],1.02
COc1ccc(C(=O)O)cc1O,NF-kB SEAP reporter activity,[1]; [5],1.01
O=C(CCCCCN1C(=O)c2cccc3cccc(c23)C1=O)NO (library stock concentration (final ~1000-fold dilution): 10 mM),NF-kB SEAP reporter activity,[3]; agonist: LPS (TLR4) 0.1 ug/mL,3.67
same,NF-kB SEAP reporter activity,[3]; [6],2.57
COc1cc2nc(N3CCN(C(=O)C4CCCO4)CC3)nc(N)c2cc1OC.Cl.O.O (stereo not drawn),NF-kB SEAP reporter activity,[1]; [4],1.09
same,NF-kB SEAP reporter activity,[1]; [5],1.02
COc1cc2nc(N3CCN(C(=O)C4CCCO4)CC3)nc(N)c2cc1OC.Cl.O.O (stereo not drawn) (library stock concentration (final ~1000-fold dilution): 10 mM),NF-kB SEAP reporter activity,[2]; agonist: LPS (TLR4) 0.1 ug/mL,1.17
same,NF-kB SEAP reporter activity,[2]; [6],1.21
same,NF-kB SEAP reporter activity,[2]; [7],1.05
same,NF-kB SEAP reporter activity,[2]; [8],1.19
c1ccc(-c2nn3c(c2-c2ccnc4cc(OCCN5CCOCC5)ccc24)CCC3)nc1 (library stock concentration (final ~1000-fold dilution): 2 mM),NF-kB SEAP reporter activity,[2]; agonist: LPS (TLR4) 0.1 ug/mL,2.87
same,NF-kB SEAP reporter activity,[2]; [6],1.07
same,NF-kB SEAP reporter activity,[2]; [7],1.05
same,NF-kB SEAP reporter activity,[2]; [8],1.01
c1ccc(-c2nn3c(c2-c2ccnc4cc(OCCN5CCOCC5)ccc24)CCC3)nc1,NF-kB SEAP reporter activity,"[1]; library stock concentration (final ~1000-fold dilution): 2 mM, cytotoxicity flag (confluency mask): not cytotoxic, agonist: Imiquimod (TLR7) […]",0.793
same,NF-kB SEAP reporter activity,"[1]; library stock concentration (final ~1000-fold dilution): 2 mM, cytotoxicity flag (confluency mask): not cytotoxic, agonist: MPLA (TLR4) […]",1.27
O=C(O)Cn1nnc(-c2cc(N3CCC(Oc4cc(F)ccc4Br)CC3)no2)n1 (library stock concentration (final ~1000-fold dilution): 10 mM),NF-kB SEAP reporter activity,[2]; agonist: LPS (TLR4) 0.1 ug/mL,1.16
same,NF-kB SEAP reporter activity,[2]; [6],1.18
same,NF-kB SEAP reporter activity,[2]; [7],1.2
same,NF-kB SEAP reporter activity,[2]; [8],0.974
O=C(O)Cn1nnc(-c2cc(N3CCC(Oc4cc(F)ccc4Br)CC3)no2)n1,NF-kB SEAP reporter activity,[1]; [4],0.988
same,NF-kB SEAP reporter activity,[1]; [5],1.2
O=C(Nc1cccc(Br)c1)c1cccc(S(=O)(=O)N2CCCCCC2)c1,NF-kB SEAP reporter activity,[1]; [4],1.56
same,NF-kB SEAP reporter activity,[1]; [5],1.26
O=C(Nc1cccc(Br)c1)c1cccc(S(=O)(=O)N2CCCCCC2)c1 (library stock concentration (final ~1000-fold dilution): 10 mM),NF-kB SEAP reporter activity,[2]; agonist: LPS (TLR4) 0.1 ug/mL,0.803
same,NF-kB SEAP reporter activity,[2]; [6],1.79
same,NF-kB SEAP reporter activity,[2]; [7],1.02
same,NF-kB SEAP reporter activity,[2]; [8],0.939
CC(C)n1c(=O)n(C)c2cnc3cc(F)c(-c4ccc(OCCCN5CCCCC5)nc4)cc3c21 (library stock concentration (final ~1000-fold dilution): 10 mM),NF-kB SEAP reporter activity,[2]; agonist: LPS (TLR4) 0.1 ug/mL,0.962
same,NF-kB SEAP reporter activity,[2]; [6],0.233
same,NF-kB SEAP reporter activity,[2]; [7],0.903
same,NF-kB SEAP reporter activity,[2]; [8],0.978
CC(C)n1c(=O)n(C)c2cnc3cc(F)c(-c4ccc(OCCCN5CCCCC5)nc4)cc3c21,NF-kB SEAP reporter activity,[1]; [4],0.846
same,NF-kB SEAP reporter activity,[1]; [5],1.02
Nc1ccc(C(=O)O)c(O)c1 (library stock concentration (final ~1000-fold dilution): 10 mM),NF-kB SEAP reporter activity,[2]; agonist: LPS (TLR4) 0.1 ug/mL,1.11 ± 0.023
same,NF-kB SEAP reporter activity,[2]; [6],0.937 ± 0.018
same,NF-kB SEAP reporter activity,[2]; [7],1.07 ± 0.031
same,NF-kB SEAP reporter activity,[2]; [8],1.15 ± 0.18
Nc1ccc(C(=O)O)c(O)c1,NF-kB SEAP reporter activity,[1]; [4],0.93 ± 0.035
same,NF-kB SEAP reporter activity,[1]; [5],1.03 ± 0.034
CCOc1nc2cccc(C(=O)O)c2n1Cc1ccc(-c2ccccc2-c2nn[nH]n2)cc1 (library stock concentration (final ~1000-fold dilution): 10 mM),NF-kB SEAP reporter activity,[2]; agonist: LPS (TLR4) 0.1 ug/mL,1.21
same,NF-kB SEAP reporter activity,[2]; [6],0.995
same,NF-kB SEAP reporter activity,[2]; [7],1.04
same,NF-kB SEAP reporter activity,[2]; [8],1.15
CCOc1nc2cccc(C(=O)O)c2n1Cc1ccc(-c2ccccc2-c2nn[nH]n2)cc1,NF-kB SEAP reporter activity,[1]; [4],0.9
same,NF-kB SEAP reporter activity,[1]; [5],1.02
COc1cc(CCc2cc(NC(=O)c3ccc(N4CC(C)NC(C)C4)cc3)n[nH]2)cc(OC)c1 (stereo not drawn),NF-kB SEAP reporter activity,[1]; [9],2.27
same,NF-kB SEAP reporter activity,[1]; [10],2.29
COc1cc(CCc2cc(NC(=O)c3ccc(N4CC(C)NC(C)C4)cc3)n[nH]2)cc(OC)c1 (stereo not drawn) (library stock concentration (final ~1000-fold dilution): 10 mM),NF-kB SEAP reporter activity,[3]; agonist: LPS (TLR4) 0.1 ug/mL,1.93
same,NF-kB SEAP reporter activity,[3]; [6],0.305
same,NF-kB SEAP reporter activity,[3]; [7],0.68
same,NF-kB SEAP reporter activity,[3]; [8],1
CNCc1ccc(C)c(NC(=O)c2ccc(Nc3nc(-c4ccccc4)c4ccccc4n3)cc2)c1 (library stock concentration (final ~1000-fold dilution): 10 mM),NF-kB SEAP reporter activity,[2]; agonist: LPS (TLR4) 0.1 ug/mL,1.02
same,NF-kB SEAP reporter activity,[2]; [6],0.866
same,NF-kB SEAP reporter activity,[2]; [7],0.925
same,NF-kB SEAP reporter activity,[2]; [8],0.951
CNCc1ccc(C)c(NC(=O)c2ccc(Nc3nc(-c4ccccc4)c4ccccc4n3)cc2)c1,NF-kB SEAP reporter activity,[1]; [4],0.945
same,NF-kB SEAP reporter activity,[1]; [5],0.949
CCCc1cc2c(N3CCN(C4=NCC(C)(C)S4)CC3)ncnc2s1,NF-kB SEAP reporter activity,[1]; [4],0.664
same,NF-kB SEAP reporter activity,[1]; [5],1.14
CCCc1cc2c(N3CCN(C4=NCC(C)(C)S4)CC3)ncnc2s1 (library stock concentration (final ~1000-fold dilution): 10 mM),NF-kB SEAP reporter activity,[2]; agonist: LPS (TLR4) 0.1 ug/mL,1.25
same,NF-kB SEAP reporter activity,[2]; [6],0.768
same,NF-kB SEAP reporter activity,[2]; [7],0.819
same,NF-kB SEAP reporter activity,[2]; [8],1.01
Cc1cn(-c2cc(NC(=O)c3ccc(C)c(Nc4nccc(-c5cnccn5)n4)c3)cc(C(F)(F)F)c2)cn1,NF-kB SEAP reporter activity,[1]; [4],0.942
same,NF-kB SEAP reporter activity,[1]; [5],1.02
Cc1cn(-c2cc(NC(=O)c3ccc(C)c(Nc4nccc(-c5cnccn5)n4)c3)cc(C(F)(F)F)c2)cn1 (library stock concentration (final ~1000-fold dilution): 10 mM),NF-kB SEAP reporter activity,[2]; agonist: LPS (TLR4) 0.1 ug/mL,0.824
same,NF-kB SEAP reporter activity,[2]; [6],0.908
same,NF-kB SEAP reporter activity,[2]; [7],0.453
same,NF-kB SEAP reporter activity,[2]; [8],0.663
